Experimental data from the supplement of paper PMC11417369.
± gives the standard deviation of the averaged measurements. Some of the results follow.

The sequences below were run on PfAP2-EXP AP2 domain (GST-tagged) (assay: gcPBM binding intensity (ln(normalized median fluorescence intensity)); higher = stronger DNA binding).
Procedure, shortened: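 Binding of GST-tagged P. falciparum DNA-binding domains, expressed in E. coli and used at about 25 μg on average, was carried out for 1 h in 1× PBS containing 1% milk, 0.2 mg/ml BSA, 0.5% salmon testes DNA and 0.03% Triton X-100. The target was an Agilent 4 × 180k array of primer-extended double-stranded 36-bp intergenic genomic probes plus negative controls, read with Alexa488 anti-GST antibody at 488 nm. Binding intensity is the highest Masliner-normalised natural-log median intensity across replicate spots of either probe orientation.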

In order of falling “gcPBM binding intensity (ln)” value:
1. TTTTTGTTATTATGTGTGCACATATATATATATATA  10.3 ± 0.4
2. ATAAAAAAAAAAAAAAAATATATATATATATATATA [XGTACX_negctrl_site424]  10.2 ± 0.32
3. TATTTTTAATATTTTGCATGCAGTATTTTATAAAAT [TGCATGCA_site250]  10.1 ± 0.2
4. CATACACCCAGACACACACACATATATATATATATA [CACACA_site634]  10.1 ± 0.44
5. CATATCTCAATTTATGCATGCAGGATTTTTCTAATA [TGCATGCA_site516]  10.1 ± 0.18
6. AATATGTACAGACATACACACATATATATATATATA [CACACA_site1222]  10.1 ± 0.2
7. TATACCTTTGCGTGTGCATGCGCTTATATATATTTT [TGCATGCA_site152]  9.6 ± 0.47
8. ATCTATTTGTAAAGGGTGCGCATATCAATAAAAAAT [GTGCAC_site9503]  9.55 ± 0.31
9. TCATTAATTAAATCTTGTACATATTCATATATATAT [XGTACX_site2241]  9.385 ± 0.007
10. TTTTATGTTCTTAATGCACACTTATAAGTATCTTAT [CACACA_site4895]  9.07 ± 0.21
11. ACAATTCCCGTATGATGTACTTTTTTCCACTTTTTC [XGTACX_site1811]  8.97 ± 0.48
12. CTTATTTTGTTATAAGTGCATTTTTTAAAATTTCTT  8.95 ± 0.28
13. GGAAGAAAACTTAGGTGTACATATAAAACGATATAA [XGTACX_site3118]  8.87 ± 0.26
14. ATTATCTTATGTTATTTATTTGTCCCACATTTGTTA [TGCATGCA_negctrl_site402]  8.86 ± 0.5
15. TATGTTATTATTTGTACACACACATATATATCCTTG [CACACA_site5910]  8.85 ± 0.3
16. TAAGCCAAGGGATAAATAAAATAACAAAATGAAATC [GTGCAC_negctrl_site601]  8.84 ± 0.42
17. AAAGTATAGATGTATACACACACCAAACGTTAAAAA [CACACA_site3081]  8.8 ± 0.67
18. ATAGTATACAGACACACACACACACCGATATATATA [CACACA_site8511]  8.78 ± 0.6
19. TACTAACATAAAGACACACACCACATAAAATAAATA [CACACA_site7663]  8.74 ± 0.42
20. ACATTATGCCATAAATGTACACATACATATACACAG [XGTACX_site1330]  8.73 ± 0.4
21. TTTTATTCATTAATTTGTACTTATCCTTTTGCTTAA [XGTACX_site1243]  8.69 ± 0.52
22. ACATATAAGATTATGTGTCCACAAAAAAATAAAACA [XGTACX_site2867]  8.69 ± 0.38
23. TAACTAAGGAATAATACACACAGAAATATATATTTA [CACACA_site344]  8.68 ± 0.41
24. AACAAATATCCCAAAAGTACACATATAAAAAAAAAA [XGTACX_site4126]  8.59 ± 0.35
25. TTATTTTTATTATTTTGTATATATATTTATAGAAAA [XGTACX_negctrl_site465]  8.52 ± 0.33
26. GACACATATAAATATTAACACACATAATGAATTATA [CACACA_site8881]  8.47 ± 0.35
27. TAAAGTTTTTTTTTAACACACACATAATAAAATAAA [CACACA_site8042]  8.46 ± 0.51
28. GATGATGTTACTTAAGTGCATATAAATTATATTTTA [GTGCAC_site9940]  8.46 ± 0.23
29. CAAAATTTTTATAAGTCACACATTATCTAAGCTTAT [CACACA_site5747]  8.46 ± 0.53
30. TTTTAGGTCTGAATGTGTACTAAATAATATAAGTAT [XGTACX_site6554]  8.43 ± 0.28
31. TACCTAATATGTTATACACACATTAGAAGTACATAT [CACACA_site5375]  8.41 ± 0.32
32. TTTATGTGTATGTTTACACACATAAAAAAATATATG [CACACA_site3039]  8.4 ± 0.34
33. TGTAATAACGTTATAAAAAGTATAAAAAAAAAAAAA [CACACA_negctrl_site943]  8.38 ± 0.56
34. TTTTTAATAACACTTTTGAAAAATAAAATAAAATAA [CACACA_negctrl_site821]  8.38 ± 0.28
35. TTTTTTTTTTTTTGGTGTACATTTATAAAAAAAAAA [XGTACX_site8368]  8.36 ± 0.4
36. GTATATAATTTTTTATGTACTAAATTATATGTTTTT [XGTACX_site4907]  8.34 ± 0.28
37. CACACAAAGGAATATACACACATATTTATATTTATA [CACACA_site7841]  8.31 ± 0.55
38. AAATATATTATAAATTGTACGTTTATATATATTATT [XGTACX_site5110]  8.29 ± 0.37
39. TTTTTTTATTATTCTTATATAAAAATTTTTTTTAAT [CACACA_negctrl_site159]  8.27 ± 0.45
40. TATATACTTTTTAATCACACTTCTTTAAAAAAAGTA [CACACA_negctrl_site1380]  8.22 ± 0.071
41. ATATAATTCAAATACAGTACATATACAATATATACA [XGTACX_site1191]  8.21 ± 0.3
42. TATGAACACAGACACACACACAAAAAAAAAAAAAAA [CACACA_site7037]  8.14 ± 0.66
43. ACACAAAAAAAAAAAAAAAAAAAAAAAAAAAAGGAA [CACACA_negctrl_site1162]  8.02 ± 0.54
44. TAAAAAAATAAAAAAAAAAAATTATAAAATTATATA [GTGCAC_negctrl_site302]  7.96 ± 0.49
45. AATAAATAAATAAATTAATAAATTAATAAATTAATA [GTGCAC_negctrl_site37]  7.84 ± 0.16
